Laboratory results from PMC8429438, “DnaJC7 binds natively folded structural elements in tau to inhibit amyloid formation” (Nature Communications, 2021).

Target: T1, DnaJC7 (full-length, wild type, recombinant) (UniProt Q99615 1-494)
T1 construct: DnaJC7, class-C J-domain protein with TPR1, TPR2a, TPR2b and a C-terminal J domain; called full-length DnaJC7; Plasmid was a gift (A. Joachimiak); also called DnaJC7WT; WT DnaJC7
T1 sequence (looked up): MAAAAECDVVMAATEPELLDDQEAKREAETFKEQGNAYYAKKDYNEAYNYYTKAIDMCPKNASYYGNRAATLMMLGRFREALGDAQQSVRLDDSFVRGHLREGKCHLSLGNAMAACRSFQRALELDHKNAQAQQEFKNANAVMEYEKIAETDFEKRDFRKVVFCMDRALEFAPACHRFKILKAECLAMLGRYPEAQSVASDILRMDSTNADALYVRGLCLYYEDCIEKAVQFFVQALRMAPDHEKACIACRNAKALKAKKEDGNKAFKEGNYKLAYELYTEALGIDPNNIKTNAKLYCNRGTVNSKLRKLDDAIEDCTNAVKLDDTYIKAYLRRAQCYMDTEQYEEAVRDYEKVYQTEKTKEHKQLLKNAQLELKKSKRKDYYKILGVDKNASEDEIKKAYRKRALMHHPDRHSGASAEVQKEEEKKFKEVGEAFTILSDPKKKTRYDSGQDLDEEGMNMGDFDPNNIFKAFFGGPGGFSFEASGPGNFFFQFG
Experiment: MST; Cy5-labelled wild-type or mutant tau/tauRD titrated with a serial two-fold dilution of DnaJC7 or single DnaJC7 domains; Monolith NT.115; technical triplicates; fit in PALMIST with a 1:1 binding model
Settings: both partners purified

Kd: 17 ± 4 µM
B1: tau N-terminal fragment (N-term, […]) (domain or fragment)
chain: not shown
modifications: Cy5 (Cyanine5 NHS ester) label in MST
notes: N-terminus of tau, […] (of full-length 2N4R tau); also called N-terminus
